# Measurements published in paper PMC10668032.
# Some of the results follow. At the low end of the ranking the order means little.
# Biological target: SIX1 homeodomain (reference allele) (UniProt Q15475)
# Assay: universal protein binding microarray
# Settings: Universal all-10-mer PBM (8x60K, AMADID 030236), 300 nM GST-tagged protein, Alexa Fluor 488 anti-GST; buffer, salt, pH and temperature not stated; high values mean tight binding; most listed sequences are background and not binding sites; double strand, one strand shown
row,Sequence,binding signal [E-score]
1,CCGTTACC,-0.0233
2,AAATCGTG,-0.0955
3,ACAAGATA,0.261
4,CCGATCGA,0.264
5,GTGATCGA,0.159
6,ACCCTAAC,0.107
7,ATGACCCA,0.12
8,GACCGACC,-0.0578
9,AAAAGATC,0.142
10,ATTACGTC,-0.0934
11,ATGGCCGA,-0.0551
12,AACCTGCC,-0.161
13,AGGCAATA,0.0823
14,TGTACGAA,-0.0746
15,CGTTTTAC,-0.0146
16,GGGCTCCA,-0.152
17,CTGGTTTA,-0.00696
18,ATGTTCCA,-0.192
19,CGTCGATA,0.283
20,GATAGATA,0.364
21,AGTTTGCG,-0.064
22,CGTAGAGC,-0.119
23,AGTTCACA,-0.14
24,AACAATCC,0.113
25,CTATGAAG,-0.0539

row,Sequence,binding signal [E-score]
1,GGTACGTA,0.129
2,CTGACCAA,0.0219
3,CTGCGCTA,-0.122
4,CGCGGTGC,-0.0751
5,ATATCACA,0.432
6,ACAGGTCT,-0.106
7,AGTTTGAG,0.0591
8,AAATCGGA,-0.0926
9,AAAAACGA,-0.176
10,GAGAAATA,0.0402
11,GCCTGTGA,-0.0291
12,TCGGAGAA,0.181
13,AATCTTCC,-0.0351
14,AACCTTCC,-0.233
15,CTTTCTAA,-0.183
16,CAAGCGGC,-0.301
17,AGTGGCTA,-0.0982
18,CGCCATCA,-0.225
19,GCGCACCA,-0.273
20,GTGGCAAA,-0.116
21,CAAAGCCG,-0.226
22,TCACCTCA,0.039
23,AATCACAT,-0.0653
24,GATACAGC,0.395
25,CAGAAGAC,-0.204

row,Sequence,binding signal [E-score]
1,AAGGGCTC,-0.228
2,CATATGCG,0.142
3,CGGGGCGC,0.108
4,ACAGTTGC,-0.188
5,AGCTAAAG,-0.117
6,TAGCTCAA,0.0467
7,TCGAGGCA,0.0183
8,ACCAACAA,-0.0835
9,AAGTTTCC,-0.252
10,ATCCCTCG,0.337
11,CATTAGCG,-0.169
12,AAAATTAC,-0.192
13,ATATCAGG,0.403
14,GACAAGGC,-0.184
15,GCGTATCA,0.481
16,GCGCATCC,0.0687
17,GAATTGGA,0.0329
18,ATTAATTA,-0.0488
19,GTCGGGCA,-0.0448
20,CATGCTGG,-0.0736
21,CACCTAGC,-0.0226
22,AAAGGGAG,-0.138
23,CCATTTCC,-0.255
24,CGACGTTA,-0.091
25,CAAAAGTA,0.0333

row,Sequence,binding signal [E-score]
1,CCGAGTTA,-0.136
2,GAGTTGGC,-0.201
3,ACTCACAA,-0.0484
4,CCCATCAC,0.0662
5,AATGCTTC,-0.227
6,AGGTACTC,-0.0416
7,GGTGATCA,0.315
8,AAGGATCA,0.383
9,CCTTCCTC,-0.164
10,CCGGCCGC,-0.128
11,ACGCTAAC,-0.21
12,AATGACCT,-0.118
13,ACGTCGAT,0.0999
14,AGTGTAGA,0.0276
15,ATAAGTCA,-0.251
16,CTCTACTA,0.0214
17,GGGACCTA,-0.0157
18,CGACCTTA,-0.151
19,ATCGGCGC,0.0546
20,ATCGACTA,0.13
21,AGATGGCG,-0.0391
22,TAGTCAGA,-0.179
23,GAGAGTTA,-0.141
24,AACGGTTA,-0.146
25,CTAAGACA,0.0886

row,Sequence,binding signal [E-score]
1,ACGGCGCA,-0.148
2,ATTTAACA,-0.186
3,ATCTGCGG,0.0781
4,CTAGGCAC,-0.114
5,AAAGTCAC,-0.356
6,CAGGGTCC,-0.276
7,CCTTTCCG,-0.0548
8,CCAGAATC,0.0148
9,CTCTAGAA,-0.0409
10,CCCCCTTA,-0.0313
11,AACAGAGC,-0.272
12,CGGACCGC,-0.18
13,AGCCAGCG,-0.0663
14,AGCGCATG,-0.109
15,CTCCCTGA,-0.0336
16,ACTATCAC,0.279
17,AGGTGCTA,-0.149
18,TCTAATCA,0.108
19,CAGTACCG,-0.0432
20,CTCCGACC,-0.107
21,GTATAAAA,0.246
22,TGACCACA,-0.153
23,AAAAACGG,-0.135
24,ATCTGCAA,0.116
25,GGCTGGAA,-0.135

row,Sequence,binding signal [E-score]
1,ACAGCAGA,-0.115
2,ATGGGAAC,0.00488
3,TCACCCCA,0.129
4,CTCGGAGA,0.0356
5,CTCTATCA,-0.136
6,CACGCGGC,-0.281
7,ATGGCATA,0.0528
8,TAAACGAA,-0.0948
9,GGGGTTGA,0.0834
10,AAGAGTGC,-0.286
11,AAATACTA,-0.121
12,AGAGATTC,0.0328
13,ATGGCCAC,-0.172
14,TTAGGAAA,-0.178
15,AATGTCAG,-0.288
16,AACAATAG,-0.264
17,AATCGTTC,-0.0796
18,AACTTCAG,-0.248
19,ATTCTAAG,-0.0788
20,AAACGTTT,-0.234
21,GATCTCAA,0.213
22,GCTCATCC,0.219
23,CCAAGGCC,-0.136
24,CATTCCTC,-0.0285
25,ACGGTGCC,-0.03

row,Sequence,binding signal [E-score]
1,CCTCCGCG,-0.00962
2,AGTACTAA,-0.0633
3,AACTCATT,-0.278
4,GAACAGAC,-0.183
5,AACGTCGG,-0.107
6,CGACCGCG,-0.167
7,CAACTGGA,-0.102
8,TAGCAAAA,-0.00498
9,AAACTCCA,-0.131
10,AACAGTTG,-0.293
11,ATGTCAGA,-0.185
12,ACAAAACA,-0.177
13,CAAGACCG,-0.0497
14,AACTGAGG,-0.27
15,CTAGTATA,0.242
16,GCGAGCGA,-0.0209
17,TCGTAAGA,-0.113
18,ATAAGCAG,0.173
19,AAAAACGT,-0.252
20,AACGGGGG,-0.0928
21,GTCCGCAA,-0.143
22,AATCCGAT,0.341
